Measurements from patent US8053415B2, “Compounds having RD targeting motifs” (Washington University in St. Louis, priority 2005, dated 2011).
For some of these results: Not every detail of the peptide structures is certain; ends, links or a residue may be inferred. Some of these results come from one statement about several compounds together. For some of these results: At least one structure is not confirmed: it was looked up by name or label, or the drawing left a doubt. Where a SMILES comes first, the peptide text is derived from it. [ ]: non-standard residue; d: D form. The star is where a group is joined. Cypate = CC1(C)C(/C=C/C=C/C=C/C=C2/N(CCC(=O)*)c3ccc4ccccc4c3C2(C)C)=[N+](CCC(=O)O)c2ccc3ccccc3c21

Assays:
A549 tumor = assay: In vivo fluorescence optical imaging and ex vivo organ distribution in A549 tumor-bearing nude mice; settings: post injection
Method: All in vivo studies were performed in compliance with the Washington University in St Louis Animal Study Committee's requirements for the care and use of laboratory animals in research. Nude mice (18-22 g) were anesthetized with xylazine/ketamine cocktail via intraperitoneal injection and placed in a supine position. The mice were injected subcutaneously with A549 cells (1×10^6) in the lower back of the mice. Tumor masses were palpable at 5-7 days post implant, which reached 5 mm in 10-15 days. Prior to injection of the probe, the mice were anesthetized as described above. A 29-gauge needle was used to inject the probes into the mouse via the lateral tail vein. The molecular probe (100 μL) was injected via the lateral tail vein at 0.3 μmol per kg of body weight. […] [SEQ ID NO:1] were constituted in a vial, and doses of 0.3 μmol per kg of body weight were injected into the A549 tumor-bearing mice.
A non-invasive in vivo continuous wave fluorescence imaging apparatus was used to visualize the distribution and preferential tissue uptake of the cypate-peptide molecular beacons in the nude mice (Achilefu (2004) Technol. Cancer Res. Treat. 3:393-409, incorporated herein by reference). Light from two laser diodes of nominal wavelength 780 nm and nominal power of 50 mW was launched into a fiber optic bundle. […] Integration of the relative fluorescence intensities of tumor vs. surrounding tissues indicated the extent of selective uptake of the contrast agent. […] The tissues were placed under the CCD camera and the fluorescence emission from each organ was measured after excitation with the 780 nm laser sources. Tissue parts, instead of whole organs, were used to minimize problems associated with depth-dependent non-linear fluorescence emission. A statistical program in the WinView package was used to estimate the mean fluorescence intensity per organ part.
In vivo optical imaging studies using the cypate-peptide optical probes were performed and analyzed as described above in Example 1. […]

A549 cells = assay: Cell uptake, internalization and blocking of cypate-peptide conjugates (Example 3); type: cell-based, human; settings: 1 μM, 4 h, 37° C.
Method: The ABI-positive cells were incubated with cypate or cypate-peptide conjugates at 37° C. for different time points. A549 cells were grown as detailed above. The human glioblastoma cell line, U87, and the human embryonic kidney cell line, HEK, were purchased from ATTC. U87 and HEK cells were maintained in minimum essential medium (MEM) with 2 mM L-glutamine and Earle's BSS adjusted to contain 1.5 g/L sodium bicarbonate, 0.1 mM nonessential amino acids, and 1.0 mM sodium pyruvate, with 10% fetal calf serum, 100 units/mL penicillin, and 100 units/mL streptomycin. Cells were grown on Lab-Tek slides. The medium was replaced and cells were incubated for various times up to 4 h at 37° C. in the presence of 1 μM of the dye conjugated peptides. For fluorescence microscopy, cells were visualized with an Olympus BX61W1 microscope using 775/50 excitation, 845/55 emission. For subcellular localization studies, 25 nM mitotracker green or 50 nM lysotracker red from Molecular Probes (Eugene, Oreg.) was added during the last 15 min or 60 min of incubation, respectively. […] Relative fluorescence was determined for five different areas of each experimental condition using the Slidebook software, and the results were averaged. The average relative fluorescence for each condition was normalized to cells treated with Cyp-GRD peptide.

[1] = molecular target: T1, purified human αvβ3 integrin protein (Homo sapiens, UniProt P05106+P06756); assay: Competitive αvβ3 integrin receptor binding assay with 125I-echistatin tracer (Example 2)
T1 construct: purchased Chemicon International, Inc. (Temecula, Calif.)
Method: The binding affinities were measured based on the competitive binding between purified αvβ3 integrin (ABI) and peptide ligands. Echistatin is a polypeptide that binds irreversibly with high affinity and specificity to ABI. ^125I-echistatin was used as a tracer in ABI binding assays.
Receptor binding assays were performed by using purified human αvβ3 integrin protein from Chemicon International, Inc. (Temecula, Calif.). Assays were carried out using the Millipore Duropore membrane 96-well plates and the Millipore MultiScreen system (Bedford, Mass.). The 96-well membrane plate was blocked with 0.1% Polythylenimine blocking solution overnight at 4° C. ^125I-echistatin (50 nmol/L) was added to the binding buffer (50 mM Tris-HCl, pH 7.4, 100 mM NaCl, 2 mM CaCl2, 1 mM MgCl2, 1 mM MnCl2, 1% BSA) containing integrin protein (50 ng per well in 96-well membrane plate) and ligands in a total volume of 200 μL per well. The concentration range of ligand was between 0.01 μM and 100 μM. The mixtures were incubated for 2 h at room temperature, the ABI was then filtered by centrifugation at 1500 g and washed three times with 0.20 mL of ice-cold binding buffer. The filters containing radioactivity bound ABI were removed using a punch apparatus and counted using a Packard Cobra II Auto-gamma counter (Meriden, Conn.). […] Radiolabeling of ^125I-echistatin (Amersham Biosciences, Piscataway, N.J.) was carried out in a mixture of 0.25% BSA, 5.0% lactose, 0.21% citric acid and aprotinin (0.9 TIU/ml).

[2] = Absorption and emission spectral properties in 20% aqueous DMSO; type: physicochemical
Method: The spectral properties of cypate and the cypate-peptide conjugates were determined in 20% aqueous DMSO, which solubilizes all the compounds. […] Absorbance measurements were performed with a Beckman Coulter DU 640 spectrophotometer. The fluorescence spectra were recorded on Fluorolog-3 fluorometer (HORIBA Jobin Yvon Inc., Edison, N.J.). To prepare the stock solutions, a high precision analytical balance was used to weigh >2 mg of each compound, which was dissolved in DMSO. The DMSO solutions were then diluted with water to obtain a final solution of 20% aqueous DMSO. An aliquot (known volume) of the solution was transferred to a cuvette with 1 μL precision micropipettes and diluted with 20% aqueous DMSO solvent mixture to give a working solution that absorbs at <1.0 absorbance unit. Aliquots of the working solution were diluted with 20% aqueous DMSO and used to determine the molar absorptivity of each compound. For fluorescence measurements, probe solutions with 0.1 absorbance units were used to minimize inner filter effects.
Previous studies have shown that this solvent mixture boosts fluorescence intensity and is well tolerated by rodents. Additionally, the dyes and their peptide conjugates are soluble in this solvent mixture, providing a common medium for spectral measurements.
Absorbance spectra were measured on a Beckman Coulter DU 640 UV-Visible spectrophotometer. Fluorescence spectra were recorded on a HORIBA Jobin Yvon Fluorolog-3 fluorometer. Stock solutions (1.0 mM) of the conjugates were prepared by dissolving each sample in 80% aqueous DMSO. UV-Vis and fluorescence measurements were carried out by adding 5.0 μL of the stock solutions via a micropipette into 3 mL of 20% aqueous DMSO in a quartz cuvette.

β3 knockout VSMC cells = assay: Internalization in integrin β3 knock-out vascular smooth muscle cells; type: cell-based, mice; settings: 1 μM, 1 hr, 37° C.
Method: (§1) Having shown that cypate-GRD preferentially binds to β3 integrin in ABI-positive cells, it was hypothesized that it would not internalize in β3 knockout cells. Vascular smooth muscle cells (VSMCs) from the aortas of β3^−/−apoE^−/− and β3^+/+apoE^−/− mice were provided by Dr. Clay F. Semenkovich (Washington University Medical School in St. Louis, Mo.). VSMCs were maintained at 37° C. in humidified atmosphere containing 5% CO2 in Dulbecco's modified Eagle's medium (DMEM) containing 10% fetal bovine serum, 4 mmol/L L-glutamine, 1 mM sodium pyruvate, 100 U/ml penicillin, 0.25 μg/ml amphotericin, 100 μg/ml streptomycin. The internalization of cypate-GRD and cyclic cypate-RGD were compared in β3 knockout and wild-type VSMC cells, essentially as described above.

VSMC wild-type cells = assay: Internalization in wild-type vascular smooth muscle cells; type: cell-based, mice; settings: 1 μM, 1 hr, 37° C.
Method: as §1

CC1(C)C(/C=C/C=C/C=C/C=C2/N(CCC(=O)O)c3ccc4ccccc4c3C2(C)C)=[N+](CCC(=O)[O-])c2ccc3ccccc3c21 [Cypate, cypate, reference compound]
time of predominant accumulation in the liver (A549 tumor): ≤ 1 h

CC(C)[C@@H]1NC(=O)[C@@H](Cc2ccccc2)NC(=O)[C@H](CC(=O)O)NC(=O)CNC(=O)[C@H](CCCNC(=N)N)NC(=O)[C@H](CCCCNC(=O)CCN2/C(=C/C=C/C=C/C=C/C3=[N+](CCC(=O)O)c4ccc5ccccc5c4C3(C)C)C(C)(C)c3c2ccc2ccccc32)NC1=O [Cyp-cyclo-RGD, Cypate-cyclo[RGDfVK^(Cypate)]] (cyclo(RGD[dF]VK(Cypate)))
internalization / fluorescence intensity in cells (A549 cells): much higher fluorescence intensity than the linear RGD compound
binding affinity compared with control cyclo(RGDfV), in words [1]: decreased greatly the binding affinity
^abεmax [2]: 177,000 cm^−1Mol^−1
^abλmax [2]: 785 nm
^emλmax [2]: 811 nm
internalization in β3 knockout cells (β3 knockout VSMC cells): fluorescence observed
internalization in VSMC wild-type cells (VSMC wild-type cells): internalized

CC1(C)C(/C=C/C=C/C=C/C=C2\N(CCCCS(=O)(=O)O)c3ccc4ccccc4c3C2(C)C)=[N+](CCCCS(=O)(=O)[O-])c2ccc3ccccc3c21 [indocyanine green, reference compound]
time of predominant accumulation in the liver (A549 tumor): ≤ 1 h

cytate [reference compound]
time of predominant accumulation in the liver (A549 tumor): ≤ 1 h
